Assay results reported in patent publication US20250228951A1, “NOVEL-PEPTIDE-BASED ANTICANCER IMMUNOTHERAPEUTIC AGENT” (TWINPIG BIOLAB INC., priority 2022, published 2025).

Biological target: T1, membrane protein ITGB2 of M2 macrophages (Homo sapiens, UniProt P05107)
T1 construct: cell membrane proteins of macrophages were obtained using a cell membrane protein extraction kit; endogenous in cells; host or cells: THP-1 cells differentiated into M2 macrophages
Test: Biotin-peptide pull-down of macrophage cell membrane proteins with LC-MS/MS proteomics
Format: binding
Conditions: biotin-conjugated peptide reacted with cell membrane proteins of M0, M1, M2 macrophages
Description: To determine which protein of M2 macrophages was involved in the specific binding of melittin to M2 macrophages, biotin-conjugated melittin (melittin-biotin) was synthesized. THP-1 cells (5×10^6 cells) were differentiated into M0, M1, and
M2 macrophages, and then collected using a scraper, washed by centrifugation (300×g, 5 min), and cell membrane proteins of macrophages were obtained using a cell membrane protein extraction kit (Thermo Fisher scientific). The proteins reacted with melittin-biotin (200 μg) in which biotin bound to melittin at room temperature (20 to 24° C.) for 1 hour, and then the proteins bound to melittin were obtained using a streptavidin resin (Thermo Fisher scientific). To remove the salt, 100 μl each of 100% methanol, 0.1% formic acid, and 80% CAN were added to an 18 Micro Spin-Column, and the sample was loaded onto the prepared column, and added with 50 μl of 0.1% formic acid to remove unnecessary substances. […] After desalting, the solution was completely removed by drying with a Speed-vac, and analyzed by LC-MS/MS using a UPLC-Exactive equipment (Thermo Fisher Scientific) under the conditions shown in Table 2 below. […] For data analysis, LC-MS/MS data for each sample were analyzed using Proteome Discoverer, and performed by LFQ (Label-Free Quantification) using a human database of Uniprot as the database. […]

**Q.** For `CC[C@H](C)[C@H](NC(=O)CN)C(=O)NCC(=O)N[C@@H](C)C(=O)N[C@H](C(=O)N[C@@H](CC(C)C)C(=O)N[C@@H](CCCCN)C(=O)N[C@H](C(=O)N[C@@H](CC(C)C)C(=O)N[C@H](C(=O)N[C@H](C(=O)NCC(=O)N[C@@H](CC(C)C)C(=O)N1CCC[C@H]1C(=O)N[C@@H](C)C(=O)N[C@@H](CC(C)C)C(=O)N[C@H](C(=O)N[C@@H](CO)C(=O)N[C@@H](Cc1c[nH]c2ccccc12)C(=O)N[C@H](C(=O)N[C@@H](CCCCN)C(=O)N[C@@H](CCCNC(=N)N)C(=O)N[C@@H](CCCCN)C(=O)N[C@@H](CCCNC(=N)N)C(=O)N[C@@H](CCC(N)=O)C(=O)N[C@@H](CCC(N)=O)C(N)=O)[C@@H](C)CC)[C@@H](C)CC)[C@@H](C)O)[C@@H](C)O)C(C)C)C(C)C` [Melittin], which “M2 TAM binding target protein” value is on record?
**A.** interacted and bound with the membrane protein ITGB2
